Experimental data from patent US20250145705A1 (SHANDONG SIMCERE BIOPHARMACEUTICAL, published 2025).

T1: human GPRC5A (human, UniProt Q8NFJ5 1-357)
T1 construct: Printed as Uniprot: Q8NFJ5-1; also called hGPRC5A; on CHOK1-hGPRC5A cells
T1 sequence: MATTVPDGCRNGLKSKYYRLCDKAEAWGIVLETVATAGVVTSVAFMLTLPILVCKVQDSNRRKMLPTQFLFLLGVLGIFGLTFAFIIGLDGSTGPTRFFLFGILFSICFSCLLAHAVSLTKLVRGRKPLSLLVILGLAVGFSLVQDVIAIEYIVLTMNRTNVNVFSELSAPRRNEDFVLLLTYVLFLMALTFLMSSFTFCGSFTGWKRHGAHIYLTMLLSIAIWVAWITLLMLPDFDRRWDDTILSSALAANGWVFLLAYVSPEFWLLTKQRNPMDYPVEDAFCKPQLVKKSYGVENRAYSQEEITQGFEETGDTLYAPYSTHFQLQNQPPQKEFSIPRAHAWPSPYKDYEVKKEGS

T2: human GPRC5B (human, UniProt Q9NZH0 29-403)
T2 construct: Printed as Uniprot: Q9NZH0-1; also called hGPRC5B; on CHOK1-hGPRC5B cells
T2 sequence: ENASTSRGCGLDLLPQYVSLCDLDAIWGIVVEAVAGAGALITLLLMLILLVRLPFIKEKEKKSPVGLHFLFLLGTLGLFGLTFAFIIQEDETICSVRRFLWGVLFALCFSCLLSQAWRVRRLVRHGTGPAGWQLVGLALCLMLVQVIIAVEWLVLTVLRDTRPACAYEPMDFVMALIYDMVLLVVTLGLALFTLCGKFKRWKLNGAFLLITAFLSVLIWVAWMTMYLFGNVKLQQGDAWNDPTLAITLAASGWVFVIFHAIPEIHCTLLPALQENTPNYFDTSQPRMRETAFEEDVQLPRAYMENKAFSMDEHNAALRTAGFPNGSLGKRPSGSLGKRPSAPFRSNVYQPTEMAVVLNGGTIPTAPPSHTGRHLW

T3: human GPRC5C (human, UniProt Q9NQ84 24-441)
T3 construct: also called hGPRC5C; on CHOK1-hGPRC5C cells
T3 sequence: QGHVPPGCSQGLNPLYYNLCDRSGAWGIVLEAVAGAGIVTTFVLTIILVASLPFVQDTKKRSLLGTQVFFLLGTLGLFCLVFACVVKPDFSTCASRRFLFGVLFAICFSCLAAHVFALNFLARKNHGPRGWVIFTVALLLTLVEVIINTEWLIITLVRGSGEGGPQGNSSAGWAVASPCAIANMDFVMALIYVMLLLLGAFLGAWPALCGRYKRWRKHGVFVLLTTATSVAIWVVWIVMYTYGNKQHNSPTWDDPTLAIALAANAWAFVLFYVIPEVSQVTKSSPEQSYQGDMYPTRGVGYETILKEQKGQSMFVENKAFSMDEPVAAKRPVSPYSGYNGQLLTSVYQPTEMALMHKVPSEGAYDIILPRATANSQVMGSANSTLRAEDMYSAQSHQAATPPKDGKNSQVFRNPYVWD

B1: GPRC5D-Mab02scFv-Fc (scFv)
scFv: QVQLQQPGAELVKPGASVKMSCKASGYTFSSYWITWVKQRPGQGLDWIGDFYPRNGDTNYNKKFKNKATLTVDTSSSTAYMQLSSLTSEDSAVYYCARSRAYYGRRGFDYWGQGTTLTVSSGGGGSGGGGSGGGGSQIVLTQSPAIMSASPGEKVTMTCSAGSSVSYMYWYQQKPGSSPRVLIYDTSNLASGVPVRFSGSGSGTSYSLIISRMEAEDAATYYCQQWSNYPLTFGAGTKLELK[human IgG1 Fc with C220S (EU numbers) not shown]
notes: Human-mouse chimeric scFv-Fc; also called GPRC5D-mab02 chimeric antibody
B2: GPRC5D-Mab06scFv-Fc (scFv)
scFv: QVQLKQSGPGLVQPSQSLSITCTVSGFSLTSYGVNWIRQSPGKGLEWLGVIWSGGNTDYNAAFRSRLSISKDNSKSQVFFKMNSLQADDTAIYYCARGQLGRPYWYFDVWGTGTSVTVSSGGGGSGGGGSGGGGSDIVMTQSHKFMSTSVGDRVSITCKASQDVRTAVAWYQQKPGQSPKLLIYWASTRHTGVPDRFTGSRSGTDYTLTISSVQAEDLALYYCQQHYSTPLTFGAGTKLELK[human IgG1 Fc with C220S (EU numbers) not shown]
notes: Human-mouse chimeric scFv-Fc; also called GPRC5D-mab06 chimeric antibody
B3: GPRC5D-Mab07scFv-Fc (scFv)
scFv: QVQLQQSGAEVVRPGTSVKVSCKASGYAFTNYLIEWLKQRPGQGLEWIGMINPGRGNTNYNEKFKGKATLTADKASSTAYMQISSLTSEDSAVYFCARNWDVWGQGTTLTVSSGGGGSGGGGSGGGGSDVVMTQTPLSLPVSLGDQASISCRSSQSLVYSNGNTYLHWYLQKPGQSPKLLIYKVSNRFSGVPDRFSGSGSGTDFTLKISRVEAEDLGVYFCSQSTHVPWTFGGGTKLEIK[human IgG1 Fc with C220S (EU numbers) not shown]
notes: Human-mouse chimeric scFv-Fc; also called GPRC5D-mab07 chimeric antibody

biological target: T4, human GPRC5D (human, UniProt Q9NZD1 1-345); assay: FACS, MolP-8 cells
T4 construct: the cell line is named under assay; also called hGPRC5D; G protein coupled receptor C5 family subtype D
Protocol: (§1) The desired cells were scale-up cultured in a T-75 cell culture flask to the logarithmic growth phase. NCI-H929, MolP-8 and RPMI-8226 cells were collected and washed with PBS buffer 2 times. After counting the cells, the cell pellet was resuspended with [PBS+2% (w/v) BSA] blocking solution to 2×10⁶ cells/ml, and added to a 96-well FACS reaction plate at 50 μl/well, and then the chimeric antibody test sample was added at 50 μl/well, and incubated on ice for 1 h. […] The obtained mixture was centrifuged and washed 3 times with a PBS buffer, and FACS (FACS CantoII, purchased from BD Company) was used for detection and result analysis. Data analysis was performed by software (Flowjo) to obtain the mean fluorescence intensity (MFI) of the cells. Then a software (GraphPad Prism8) was used for analysis, the analysis results are shown in Table 9 and FIGS. 9A-9C, 10A-10C and 11A-11C.

Row | Binder | EC50 | Maximum mean fluorescence intensity
1 | B1 | 10.3 nM | 3340
2 | B2 | 3.94 nM | 3920
3 | B3 | 1.87 nM | 2810

biological target: T1, human GPRC5A; assay: FACS, CHOK1-hGPRC5A cells

Row | Binder | binding result
4 | B1 | no binding
5 | B2 | no binding
6 | B3 | no binding

biological target: T5, hGPRC5D-LVP protein (human, UniProt Q9NZD1 1-345, limits assumed); assay: competitive ELISA, competitor Biotin-5F11; antibody at 0.21 nM

Row | Binder | OD450
7 | B1 | 1.05
8 | B2 | 0.66
9 | B3 | 0.73

biological target: T2, human GPRC5B; assay: FACS, CHOK1-hGPRC5B cells
Protocol: as §1

Row | Binder | Maximum mean fluorescence intensity
10 | B1 | 77
11 | B2 | 53
12 | B3 | 48

biological target: T2, human GPRC5B; assay: FACS, CHOK1-hGPRC5B cells; remark: another data set of the same source

Row | Binder | binding result
13 | B1 | no binding
14 | B2 | no binding
15 | B3 | no binding

biological target: T5, hGPRC5D-LVP protein; assay: competitive ELISA, competitor Biotin-5F11; antibody at 0.62 nM
T5 sequence (Q9NZD1 whole entry): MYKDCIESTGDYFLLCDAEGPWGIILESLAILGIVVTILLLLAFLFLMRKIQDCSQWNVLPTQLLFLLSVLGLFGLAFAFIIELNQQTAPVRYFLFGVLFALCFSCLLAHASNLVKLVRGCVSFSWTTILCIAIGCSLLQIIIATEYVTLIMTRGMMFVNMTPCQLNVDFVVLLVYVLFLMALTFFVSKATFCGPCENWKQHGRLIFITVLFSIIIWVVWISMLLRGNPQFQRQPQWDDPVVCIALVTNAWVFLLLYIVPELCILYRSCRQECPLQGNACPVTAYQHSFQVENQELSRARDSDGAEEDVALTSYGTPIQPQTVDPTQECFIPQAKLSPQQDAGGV

Row | Binder | OD450
16 | B1 | 1.06
17 | B2 | 0.48
18 | B3 | 0.59

biological target: T3, human GPRC5C; assay: FACS, CHOK1-hGPRC5C cells
Protocol: as §1

Row | Binder | Maximum mean fluorescence intensity
19 | B1 | 71
20 | B2 | 45
21 | B3 | 42

biological target: T1, human GPRC5A; assay: FACS, CHOK1-hGPRC5A cells; remark: another data set of the same source
Protocol: as §1

Row | Binder | Maximum mean fluorescence intensity
22 | B1 | 72
23 | B2 | 76
24 | B3 | 86

biological target: T5, hGPRC5D-LVP protein; assay: competitive ELISA, competitor Biotin-5F11; antibody at 1.85 nM

Row | Binder | OD450
25 | B1 | 0.85
26 | B2 | 0.37
27 | B3 | 0.47

biological target: T4, human GPRC5D; assay: FACS, RPMI-8226 cells
T4 sequence (Q9NZD1 whole entry): as above
Protocol: as §1

Row | Binder | EC50 | Maximum mean fluorescence intensity
28 | B1 | 2.2 nM | 535
29 | B2 | 2.43 nM | 653
30 | B3 | 2.3 nM | 440

biological target: T5, hGPRC5D-LVP protein; assay: competitive ELISA, competitor Biotin-5F11; antibody at 16.67 nM

Row | Binder | OD450
31 | B1 | 0.46
32 | B2 | 0.19
33 | B3 | 0.29

biological target: T3, human GPRC5C; assay: FACS, CHOK1-hGPRC5C cells; remark: another data set of the same source

Row | Binder | binding result
34 | B1 | no binding
35 | B2 | no binding
36 | B3 | no binding

biological target: T4, human GPRC5D; assay: FACS, NCI-H929 cells
Protocol: as §1

Row | Binder | EC50 | Maximum mean fluorescence intensity
37 | B1 | 1.88 nM | 7360
38 | B2 | 0.73 nM | 5970
39 | B3 | 0.77 nM | 5240

biological target: T5, hGPRC5D-LVP protein; assay: competitive ELISA, competitor Biotin-5F11; antibody at 0.07 nM

Row | Binder | OD450
40 | B1 | 1.21
41 | B2 | 0.78
42 | B3 | 0.83

biological target: T5, hGPRC5D-LVP protein; assay: competitive ELISA, competitor Biotin-5F11; antibody at 5.56 nM

Row | Binder | OD450
43 | B1 | 0.59
44 | B2 | 0.29
45 | B3 | 0.37

biological target: T5, hGPRC5D-LVP protein; assay: competitive ELISA, competitor Biotin-5F11; antibody at 0 nM

Row | Binder | OD450
46 | B1 | 1.21
47 | B2 | 0.86
48 | B3 | 0.79

biological target: T5, hGPRC5D-LVP protein; assay: competitive ELISA, competitor Biotin-5F11; antibody at 50.00 nM

Row | Binder | OD450
49 | B1 | 0.34
50 | B2 | 0.16
51 | B3 | 0.25
